# Results published in the BET-seq Pho4 binding data (Le et al. 2018).
# The other results are listed elsewhere or left out. The energies were worked out here from pooled read counts, against the library average; single values are noisy.
# Biological target: T1, Pho4 (S. cerevisiae) (UniProt P07270)
# T1 sequence: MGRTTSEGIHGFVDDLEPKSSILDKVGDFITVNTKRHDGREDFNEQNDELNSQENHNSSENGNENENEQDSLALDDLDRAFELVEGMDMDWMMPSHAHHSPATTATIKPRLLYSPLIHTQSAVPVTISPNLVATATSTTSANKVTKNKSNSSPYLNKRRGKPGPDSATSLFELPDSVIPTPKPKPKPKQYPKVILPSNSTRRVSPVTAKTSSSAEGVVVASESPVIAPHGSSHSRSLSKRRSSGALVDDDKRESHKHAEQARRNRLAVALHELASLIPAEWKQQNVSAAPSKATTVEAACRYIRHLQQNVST
# Test: relative binding free energy (BET-seq); higher = weaker binding
# Conditions: reference: library average
row,Sequence,relative binding free energy [kcal/mol]
1,GGGGGCACGTGGAACT,0.02
2,GTGAGCACGTGGCGGT,-0.16
3,TTATGCACGTGTTGTA,0.01
4,ATGTACACGTGTAGTA,0.16
5,TTTGACACGTGTGAAT,0.1
6,GGTTACACGTGCAGTT,0.22
7,TGGGACACGTGCAAGG,0.12
8,CGTGTCACGTGACTGT,0.08
9,GATAGCACGTGGGCAT,-0.06
10,TAGTTCACGTGTCATT,0.2
11,TGGGTCACGTGCCGAG,0.04
12,TATGTCACGTGTTACT,0.07
13,GAGCGCACGTGTCGGT,0.04
14,TAGGGCACGTGTTTGT,-0.1
15,AGGGGCACGTGGGGCT,-0.22
16,ATTTACACGTGGGACG,0.16
17,AGGACCACGTGGGGAT,-0.09
18,ATGATCACGTGTTTAA,0.12
19,GTTTTCACGTGGCTAG,0.33
20,TTTCTCACGTGTCAGG,0.19
21,TTAAGCACGTGATGGA,0.14
22,AAATTCACGTGTGAGT,0.16
23,CATGTCACGTGGGAGT,0.01

row,Sequence,relative binding free energy [kcal/mol]
1,GGAGACACGTGTAGTG,0.24
2,GCAGGCACGTGGGAGG,-0.14
3,TTATTCACGTGTCTAT,0.05
4,GTTACCACGTGGTATT,-0.09
5,CTTGGCACGTGCGGTG,-0.19
6,AGATTCACGTGGTTTC,0.31
7,CGGGGCACGTGTTAGT,-0.03
8,GGGGTCACGTGCACAG,0.08
9,ATGATCACGTGGTATT,0.14
10,AGTTGCACGTGGTTAG,-0.11
11,AAGGCCACGTGAGGTG,0.16
12,TTAAGCACGTGTTTCT,-0.19
13,GATGGCACGTGATATG,0
14,AAGGTCACGTGAGCTG,0.34
15,GAGTGCACGTGTGAGT,0.15
16,ATTAGCACGTGAGGCT,0.1
17,AAGCTCACGTGGTGTG,0.21
18,AAGTTCACGTGGGTGC,0.22
19,GTCGGCACGTGGAGAG,0.07
20,GGATTCACGTGATAGA,0.44
21,TTGGTCACGTGCAATT,0.19
22,ATGGTCACGTGTGTAA,0.13
23,GTAAGCACGTGTTATT,0

row,Sequence,relative binding free energy [kcal/mol]
1,GTGGCCACGTGGGAAG,-0.11
2,ATGTTCACGTGGCCTT,0.12
3,GGAGTCACGTGAGATT,0.38
4,CGAAGCACGTGGGGGG,-0.18
5,TTCTGCACGTGGTGTA,-0.05
6,GGGGGCACGTGTGATT,0.05
7,AATGTCACGTGAGGGT,0.21
8,CTGTACACGTGTTGCG,0.11
9,GCTTACACGTGAGTGG,0.23
10,GTGGTCACGTGCGGCT,0.09
11,GATAGCACGTGAAGGT,0.16
12,GGGTACACGTGGGCGT,-0.07
13,GCTGTCACGTGCATGG,0.09
14,AGTTCCACGTGTGTTA,0.03
15,ATAGGCACGTGGTATG,-0.26
16,CGGTACACGTGGGAGC,0.1
17,GGGAGCACGTGGAAGT,0.06
18,TCGTTCACGTGTGGGC,0.33
19,ATGGCCACGTGTGTTA,-0.02
20,AATTGCACGTGAGGTA,0.2
21,GGCATCACGTGCGTGG,0.14
22,GTAGGCACGTGCTTGT,-0.22
23,TCGGGCACGTGCATTG,-0.07

row,Sequence,relative binding free energy [kcal/mol]
1,GGTAGCACGTGCTAGG,-0.18
2,GATGTCACGTGTGTCT,0.12
3,TGTGTCACGTGATAAA,0.06
4,TTAAGCACGTGAACGT,0.19
5,TGTCACACGTGCTGGT,0.07
6,TATTACACGTGGTCTG,0.07
7,CTGTTCACGTGGAGTA,0.18
8,TCGCTCACGTGTATGT,0.15
9,GTATGCACGTGTCGGT,0.11
10,GTGACCACGTGGTTTA,0.01
11,TTAAGCACGTGTAGTG,-0.03
12,TTGGGCACGTGGTTTA,-0.05
13,GTAGTCACGTGTGAAA,0.02
14,TTGGGCACGTGAAATG,0.18
15,GGTGGCACGTGGGTAG,-0.21
16,TCGCGCACGTGGTGGT,-0.2
17,CTGTTCACGTGTATTT,0.35
18,TGTTACACGTGTGCCT,0.19
19,CTATGCACGTGTGTTT,-0.07
20,TGGTACACGTGCAATG,0.24
21,GAGTTCACGTGTGAAG,0.27
22,GGAGGCACGTGGTGGA,-0.16
23,TATTACACGTGCAGGT,0.14

row,Sequence,relative binding free energy [kcal/mol]
1,GTTATCACGTGGGGTG,0.11
2,TATTTCACGTGTCGAT,0.26
3,TTTCTCACGTGTAGGA,0.12
4,AGGCGCACGTGGGTTT,-0.03
5,TGGGACACGTGATGTA,0.09
6,CTTTTCACGTGTTGTT,0.3
7,GTGTGCACGTGCTGGC,0.05
8,TATGGCACGTGGTGAT,-0.16
9,AGATTCACGTGAGAAG,0.4
10,GGGGGCACGTGACGGT,0.05
11,ATATACACGTGTTTGA,-0.03
12,GTGGTCACGTGAGGTT,0.43
13,CTTGTCACGTGGTGCG,0.03
14,TTTTTCACGTGGGGCG,0.25
15,CAGGGCACGTGATGGG,0.06
16,TACATCACGTGGGTAG,-0.06
17,ATCGTCACGTGGAGGA,0.1
18,AAGGGCACGTGGGCCT,-0.14
19,TTTATCACGTGAAGAA,0.37
20,TTGGTCACGTGATGAC,0.29
21,TTAAGCACGTGGTTTG,-0.15
22,TCGGGCACGTGTGACT,0.06
23,TTGGACACGTGTTGAT,0.06
